Screen size: about 50,000 compounds; about 800 (1.6%) showed an effect of 50% or more. Some of the results follow.

For the assay, the target named is Bcl-2-like protein 10 (Homo sapiens) (UniProt Q9HD36). The experiment in a line: Phenotype converters, Bcl-B/TR3 peptide binding displacement, primary biochemical FP (AID 1240).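 Note: 0% = Bcl-B with tracer peptide and DMSO and 100% = tracer peptide lacking Bcl-B.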 The following applies: GST-Bcl-B / FITC-TR3 peptide fluorescence polarization; stronger effect = higher value; compound at 3.75 mg/L. In general terms: In fluorescence polarisation assays a small probe gives low polarisation when free and higher when bound to something large.
UniProt Q9HD36, sequence (Q9HD36 whole entry, looked up): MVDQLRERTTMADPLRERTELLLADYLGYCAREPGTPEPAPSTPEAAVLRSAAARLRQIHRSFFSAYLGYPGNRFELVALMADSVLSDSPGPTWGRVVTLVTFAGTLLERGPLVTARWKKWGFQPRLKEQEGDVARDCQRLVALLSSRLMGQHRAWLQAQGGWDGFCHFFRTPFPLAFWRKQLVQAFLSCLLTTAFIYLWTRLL
With `O=C(NC1CCCCC1)C1CC(=O)N(c2cccc([N+](=O)[O-])c2)C1` (stereo unspecified), the displacement was -8.3%.

With `O=c1c2ccccc2nc2n1S(=O)(=O)c1ccccc1-2`, the displacement is -6.5%.

Consider `CCc1cc2c(=O)c(-c3nc4ccccc4s3)c(C)oc2cc1OS(C)(=O)=O`, for which the displacement was -0.2%.

Take `Cc1ccc(OCC(=O)O/N=C(\N)Cc2ccc([N+](=O)[O-])cc2)c(Br)c1`: the displacement was -13.2%.

`O=C(NCCCCOc1ccccc1)C(O)(c1ccc(Cl)cc1)c1ccc(Cl)cc1`: the displacement is -3.5%.

With `CCOCCOC(=O)c1ccc(NC(=O)COc2ccc([N+](=O)[O-])cc2)cc1`, the displacement is -4.5%.

`CC(=O)NC1=NN(C(C)=O)C(C)(c2cccc(OC(=O)c3ccccc3)c2)S1` (stereo unspecified): the displacement is -4.7%.

In the case of `C=CCC(C)(CC=C)NS(=O)(=O)c1ccc(NC(C)=O)cc1`, the displacement stood at 0.7%.

As for `CN1C(=O)C(=Cc2ccc(-c3ccc(Cl)c(C(=O)O)c3)o2)C(=O)N(C)C1=O`, the displacement was determined as 14.5%.

`Cc1ccc(C(=O)N2CCN(c3ccc(Cl)cc3)CC2)cc1`: the displacement is -3%.

For the compound `O=C(c1ccc(F)cc1)N1CCN(c2cc(N3CCCC3)c(F)cc2[N+](=O)[O-])CC1`, the displacement was -2.7%.

Regarding `Cc1occc1C(=O)N1CCCc2ccccc21`, the displacement worked out at 9.4%.

Consider `CCOc1ccc(-c2cc(C(=O)Nc3c(C)cccc3CC)c3ccccc3n2)cc1`, for which the displacement is -4.4%.

`c1ccc2cc(OCCCCN3CCCCC3)ccc2c1`: the displacement amounted to 6.3%.

In the case of `CCCCc1ccc(C(=O)NNC(=O)c2ccccc2C)cc1`, the displacement was -7.9%.

For `Cc1ccc(-c2nc3ncccc3o2)cc1NC(=O)COc1ccc(C(C)(C)C)cc1`, the displacement was determined as 5.4%.

On to `CCCCN=C(CCC)C1=C(O)CC(C)(C)CC1=O`, for which the displacement is -12.1%.

Consider `O=c1ccnc(SCc2ccc(Cl)cc2Cl)[nH]1`, for which the displacement was -27.9%.

In the case of `Cc1nnc2nc(-c3cccc(Cl)c3Cl)[nH]n12`, the displacement was 13.4%.

In the case of `COc1cc(-c2nc3ccccn3c2/N=C/c2cccc([N+](=O)[O-])c2)ccc1O`, the displacement is 11.3%.

As for `CCOC(=O)CC(=O)c1c(C)[nH]c(C(=O)OCC)c1C`, the displacement was -18.1%.

As for `COc1ccc(/C=N/Nc2ccc(Br)cc2)cc1[N+](=O)[O-]`, the displacement is -7.2%.

In the case of `O=C1NN(c2ccccc2)C(=O)/C1=C\c1ccc(O)cc1`, the displacement is -1.7%.

In the case of `COc1ccc(CCN=CC2=C(O)CC(c3ccccc3)CC2=O)cc1OC` (stereo unspecified), the displacement was found to be 1.2%.

Take `COc1ccc(Cl)cc1C(=O)N(Cc1ccccc1)C(C)C`: the displacement turned out to be 11.9%.

`CC1(C)CC(=O)C=C(NC2CC(C)(C)NC(C)(C)C2)C1`: the displacement amounted to 2.6%.

Consider `O=c1c(-c2nc3ccccc3s2)coc2cc(OCc3ccc([N+](=O)[O-])cc3)ccc12`, for which the displacement was 6.2%.

Turning to `Cc1ccc(OCC(=O)NCc2ccc(F)cc2)cc1`, the displacement is -10.4%.

With `COc1cc(C(=O)N2CCN(C(=O)c3ccncc3)CC2)cc(OC)c1OC`, the displacement was 0.3%.

With `O=[N+]([O-])c1ccc(N2CCOCC2)c(Cl)c1N1CCOCC1`, the displacement worked out at 12.9%.

For the compound `CC1=C(C(=O)OCc2ccc(C)cc2)C(c2ccc(O)cc2)NC(=O)N1` (stereo unspecified), the displacement is -6.7%.

With `CCOc1ccccc1NC(=O)CSc1nc2ccccc2s1`, the displacement is -10.8%.

With `CCCOc1ccc(C(=O)Nc2cc(C(=O)OC)cc(C(=O)OC)c2)cc1`, the displacement turned out to be 8.8%.

`CCOc1cc(/C=C2\C(=O)NC(=O)N(c3ccc(C)cc3)C2=O)c(Br)cc1OC`: the displacement is 16.8%.

As for `CN(C(=O)COc1ccc2ccccc2c1)c1ccccc1`, the displacement worked out at 9%.

Take `O=C(Nc1cccc2ccccc12)C1C2C3CCC(C3)C12` (stereo unspecified): the displacement is -0.5%.

For the compound `CCOc1ccccc1C1C(C(=O)OC)=CNC=C1C(=O)OC`, the displacement came to 0.6%.

In the case of `CCOc1ccc(NC(=O)c2ccccc2NC(=O)c2ccccc2)cc1`, the displacement amounted to 15.4%.

In the case of `COc1ccc(-c2c(C)nn3c(-c4cccs4)cc(C(F)(F)F)nc23)cc1`, the displacement is -2.1%.

In the case of `O=C(Nc1cccc2nsnc12)c1ccc(OCc2ccccc2)cc1`, the displacement came out at 35.4%.

Regarding `COc1ccc2c3c(c(=O)oc2c1)CCCC3`, the displacement is -3.8%.

Regarding `CCOC(=O)c1sc(NC(=O)c2c(-c3ccccc3)noc2C)c(C(=O)OCC)c1C`, the displacement was -4.7%.

With `CC(C)Nc1nc(-c2ccccc2Cl)nc2ccccc12`, the displacement turned out to be 24.8%.

For `N#Cc1ccccc1NC(=O)NS(=O)(=O)c1ccccc1Cl`, the displacement was 15.9%.

Regarding `COc1ccc(-c2ccc(-c3nc(-c4ccccc4Cl)no3)cc2)cc1`, the displacement was -8.7%.

Regarding `O=C1c2ccccc2C(=O)C1(Nc1ccc(F)cc1)c1ccccc1`, the displacement is 17.4%.

With `COc1ccc(S(=O)(=O)N2CCN(Cc3ccc(OC)c(OC)c3OC)CC2)cc1`, the displacement is -9.1%.

Take `O=C(CSCc1ccccc1)NCCc1ccc(Cl)cc1`: the displacement was -6.7%.

Turning to `COc1cccc(C(=O)Nc2cc(-c3nc4ccccc4o3)ccc2OC)c1`, the displacement was -29.6%.

Take `O=C(NCCO)c1cccc2c1C(=O)c1ccccc1-2`: the displacement was determined as 7.8%.

For the compound `Cc1c(C(=O)Nc2ccc(Cl)cn2)oc2ccccc12`, the displacement amounted to 15.4%.

Regarding `Cc1cc(=O)oc2c(C)c(O)c(C(=O)c3ccccc3)cc12`, the displacement was -3.1%.

For the compound `O=[N+]([O-])c1cc(C(=S)N2CCOCC2)ccc1O`, the displacement was 10.2%.

As for `CC(NS(=O)(=O)c1ccc(Cl)cc1)C1C2CC3CC(C2)CC1C3` (stereo unspecified), the displacement was 10.6%.

For the compound `Cc1ccccc1/C=N/NC(=O)c1ccc(-c2ccccc2)cc1`, the displacement was -7.2%.

Turning to `COc1ccc(C(CC(=O)c2ccc(C)cc2)Nc2ccc(Br)cc2)cc1` (stereo unspecified), the displacement was -4.2%.

As for `C=CCOc1ccc(/C=N/NC(=O)CN(Cc2ccccc2)S(=O)(=O)c2ccccc2)cc1`, the displacement was -4.4%.

With `COc1ccc(S(=O)(=O)N2CCN(C(=O)c3cccnc3)CC2)cc1`, the displacement was found to be 12.2%.

On to `CC(=O)/C=C/c1cc[n+](C)cc1`, for which the displacement was 7.1%.

Turning to `O=C1c2ccccc2-c2c(-c3ccccc3)sc(=O)n21`, the displacement is -1.5%.

For `Cc1ccc(C(=O)O/N=C(\N)c2ccccn2)cc1[N+](=O)[O-]`, the displacement is 8.2%.

For `C(=C\c1ccco1)/C=N/Nc1nnc2c(n1)[nH]c1ccccc12`, the displacement is -1.8%.

As to `CCOc1cc(-c2nc3ccccc3c(=O)[nH]2)cc(Br)c1O`, the displacement is -10.4%.

As for `CC(=O)N(C1=C(N2CCOCC2)C(=O)c2ccccc2C1=O)c1ccc(C(=O)O)cc1`, the displacement worked out at 1.1%.

On to `O=C(/C=C/c1ccco1)NCCCNC(=O)/C=C/c1ccco1`, for which the displacement was found to be 1.1%.

For `COc1ccc(NC(=O)O/N=C\c2ccc(N(C)C)cc2)cc1`, the displacement was 4.8%.

For `CCc1ccc(NC(=O)C2CC(=O)N(c3ccc(CC)cc3)C2)cc1` (stereo unspecified), the displacement was found to be 9.5%.

Take `Cc1ccccc1N1CCN(C(=O)CN2C(=O)c3ccccc3C2=O)CC1`: the displacement was -7.4%.

`Cc1ccc(/C=C/C(=O)NCc2ccco2)o1`: the displacement amounted to 11.2%.

For the compound `COc1cc(OC)cc(C(=O)Nc2cccc(-c3nc4ncccc4o3)c2C)c1`, the displacement was determined as 5.6%.

Consider `CC1(C)CC(=O)C(C(O)c2ccc([N+](=O)[O-])cc2)C(C)(C)N1` (stereo unspecified), for which the displacement was -12.9%.

As to `CCOc1ccc(C(=O)Nc2cc(-c3nc4ccccc4o3)ccc2C)cc1[N+](=O)[O-]`, the displacement amounted to 1.7%.

On to `CC(=O)c1cccc(NC(=O)c2cccc(Cl)c2)c1`, for which the displacement was -5.2%.

On to `COc1ccc(N(CC(=O)Nc2ccc(Br)cc2)S(C)(=O)=O)cc1`, for which the displacement worked out at 3.9%.

Regarding `COc1ccc(/C=c2\sc3nnc(-c4ccccc4)n3c2=O)c(OC)c1`, the displacement is 28%.

Turning to `COc1ccc(CCN(C(=O)CCC(=O)O)C2CC(=O)N(c3cccc(Cl)c3)C2=O)cc1` (stereo unspecified), the displacement is -7%.

As to `O=C(NCCOc1ccccc1)c1ccccc1C(F)(F)F`, the displacement is 5.6%.

On to `O=C1c2ccccc2C(=O)c2c1cccc2S(=O)(=O)Nc1ccc(Cl)cc1`, for which the displacement was determined as 9.5%.

Turning to `COc1ccc(C(=O)Nc2ccc(OC(F)(F)F)cc2)cc1Cl`, the displacement was -0.6%.

For `NC(=O)c1c(NC(=O)c2ccccc2Cl)sc2c1CCCC2`, the displacement was -2%.

With `O=C(Oc1ccc(C(=S)N2CCOCC2)cc1)c1ccccc1`, the displacement was determined as 12.4%.

Regarding `Cc1[nH]c(=S)c(C#N)c(-c2cccs2)c1C(=O)Nc1ccccc1`, the displacement is -0.3%.

For `O=C(Cc1cccc2ccccc12)N1CCN(c2ccccc2)CC1`, the displacement is -4%.

As to `O=C1NC(=O)C(=Cc2ccc(OCc3ccccc3F)cc2)C(=O)N1`, the displacement amounted to 13.6%.

As for `CC(C)(C)C(=O)/C=C(\N)COc1ccccc1`, the displacement is -11.6%.

`CC(=O)N(c1ccc(Cl)cc1)S(=O)(=O)c1ccc(Cl)cc1`: the displacement was 14.9%.

Regarding `O=C1N=C(N2CCN(C3=NC(=O)/C(=C/c4ccccc4O)S3)CC2)S/C1=C\c1ccccc1O`, the displacement is -13.8%.

Consider `Cc1ccc(CSCCNC(=O)c2ccc(CN(c3cccc(Cl)c3)S(C)(=O)=O)cc2)cc1`, for which the displacement was 15.7%.

Take `O=C(COc1cccc(Cl)c1)NC1CCCCC1`: the displacement was -6%.

For `COc1ccc(Br)cc1CN1CCN(Cc2ccc(OC)c(OC)c2)CC1`, the displacement was 1.7%.

With `O=C(CCCN1C(=O)/C(=C/c2ccccc2)SC1=S)Nc1ccccc1`, the displacement is 20.6%.

As to `O=[N+]([O-])c1ccc(Nc2c(F)c(F)c(F)c(F)c2F)cc1`, the displacement came out at 2.3%.

Regarding `O=[N+]([O-])c1ccccc1/C=N/Nc1ncc(Br)cn1`, the displacement is -10.7%.

As to `NNC(=O)Cn1nc(-c2ccccc2)c2ccccc2c1=O`, the displacement is -0.9%.

On to `Cc1ccc2nc(/C(C#N)=C/c3cc([N+](=O)[O-])ccc3O)[nH]c2c1`, for which the displacement came out at 24.3%.

`CC(=O)Oc1ccccc1/C=C1\C=C(c2ccc(Cl)cc2)OC1=O`: the displacement was found to be 108%.

For the compound `CCc1ccccc1NC(=O)C1CC(=O)N(c2ccc(Br)cc2)C1` (stereo unspecified), the displacement is -5%.

For the compound `Cc1cccc(/C=N/n2c(C)nnc2C)c1`, the displacement stood at 12.2%.

In the case of `O=C(CCc1ccccc1)Nc1ccc(Br)cc1`, the displacement worked out at 9.1%.

On to `CN(C)Cc1c(O)ccc2c1c(-c1ccccc1)nn2-c1ccccc1`, for which the displacement was determined as 0.9%.

`O=C(c1ccccc1)c1ccc(N2CCN(C(=O)c3ccccc3F)CC2)c(F)c1`: the displacement was -26.3%.

Take `O=C(NC1CCCCCC1)c1cccc(Cl)c1`: the displacement turned out to be 4.5%.

Take `CCc1ccc(NC(=O)C(C)Oc2ccc(OC)cc2)cc1` (stereo unspecified): the displacement worked out at 5.9%.

`CCOC(=O)C1=C(C)NC(=S)NC1c1ccc(OC(F)F)cc1` (stereo unspecified): the displacement is -5.4%.

As for `O=C(CSc1nnc(-c2cccs2)n1-c1ccccc1)c1cccc([N+](=O)[O-])c1`, the displacement is -3.1%.

On to `C=CCc1c(C)[nH]c2c(OC)cccc2c1=S`, for which the displacement is -6%.

In the case of `COc1ccc(OC)c(NC(=O)CN(c2ccccc2OC)S(=O)(=O)c2ccccc2)c1`, the displacement was -1.1%.

As to `CC(C)(C)OC(=O)C1C(=O)CC(C)(O)C(C(=O)OC(C)(C)C)C1c1ccccc1` (stereo unspecified), the displacement was -1.3%.

In the case of `Cc1ccc(CCC(=O)Nc2ccc(Br)cc2)o1`, the displacement turned out to be 10.1%.

Regarding `O=C(COc1ccc(Cl)cc1Br)NNC(=O)c1cccc(O)c1`, the displacement was -6.7%.

In the case of `CC(=O)NC(c1ccc(C)cc1)c1c(OC(=O)COc2ccccc2)ccc2ccccc12` (stereo unspecified), the displacement is -49.5%.

The record behind these values is PubChem BioAssay AID1240 (Sanford-Burnham Center for Chemical Genomics, 2008).
